Only a part is listed here, and it is no random draw. The list includes weakly bound sequences.

What all share (experiment): protein-binding microarray (PBM)
Common to all, as to settings: PBM: ~300 nM protein, 6 mM HEPES pH 7.8, 80 mM KCl, 0.5 mM EDTA, 0.5 mM EGTA, 6% glycerol, 35 ng/ul poly-dIdC, 1% milk, 1 h, room temperature; Ap Aiptasia and Nv Nematostella (sea anemones) / Co Capsaspora / Aq Amphimedon (sponge) / Dm Drosophila / Hu human; RHD is the Rel homology domain; high values mean tight binding; most listed sequences are background and not binding sites; double strand, one strand shown

The target of one experiment is T1, GST-Ap-NF-kB RHD (UniProt A0A913YAJ5).
T1 sequence: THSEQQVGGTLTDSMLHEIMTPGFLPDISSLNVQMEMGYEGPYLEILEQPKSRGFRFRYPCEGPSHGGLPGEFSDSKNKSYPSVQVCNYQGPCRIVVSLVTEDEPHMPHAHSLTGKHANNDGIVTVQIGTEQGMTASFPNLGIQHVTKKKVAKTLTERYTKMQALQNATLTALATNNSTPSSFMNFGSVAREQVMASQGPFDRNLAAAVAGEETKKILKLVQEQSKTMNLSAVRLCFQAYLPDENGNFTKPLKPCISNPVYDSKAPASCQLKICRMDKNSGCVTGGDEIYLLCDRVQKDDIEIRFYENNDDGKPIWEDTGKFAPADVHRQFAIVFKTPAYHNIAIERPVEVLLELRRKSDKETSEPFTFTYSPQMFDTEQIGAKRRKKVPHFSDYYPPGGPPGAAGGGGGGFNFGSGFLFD

In experiment [1] the target is T2, GST-Nv-NF-kB (Cys allele) (UniProt E5G601).
T2 sequence: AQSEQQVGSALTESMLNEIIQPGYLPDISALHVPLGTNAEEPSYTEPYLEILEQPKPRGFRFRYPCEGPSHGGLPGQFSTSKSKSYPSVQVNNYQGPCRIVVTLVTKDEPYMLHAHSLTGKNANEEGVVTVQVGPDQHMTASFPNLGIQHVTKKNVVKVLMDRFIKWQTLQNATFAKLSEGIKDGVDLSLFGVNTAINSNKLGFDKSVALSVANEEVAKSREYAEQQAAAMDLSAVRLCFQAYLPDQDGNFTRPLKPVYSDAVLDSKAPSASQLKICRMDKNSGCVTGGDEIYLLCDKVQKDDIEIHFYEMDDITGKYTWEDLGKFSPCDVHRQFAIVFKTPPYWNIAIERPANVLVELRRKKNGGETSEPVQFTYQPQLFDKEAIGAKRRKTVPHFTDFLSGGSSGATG

For another experiment, the target named is T3, GST-Co-NF-kB (UniProt F1ARL5).
T3 sequence: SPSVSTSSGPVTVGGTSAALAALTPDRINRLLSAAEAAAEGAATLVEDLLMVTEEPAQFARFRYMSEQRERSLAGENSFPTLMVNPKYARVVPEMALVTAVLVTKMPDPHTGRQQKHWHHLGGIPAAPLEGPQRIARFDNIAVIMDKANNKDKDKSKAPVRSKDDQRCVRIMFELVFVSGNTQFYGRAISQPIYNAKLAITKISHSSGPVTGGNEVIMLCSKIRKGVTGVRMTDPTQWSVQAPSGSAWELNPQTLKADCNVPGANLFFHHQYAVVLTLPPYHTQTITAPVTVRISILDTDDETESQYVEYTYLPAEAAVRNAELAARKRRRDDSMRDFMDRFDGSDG

The next experiment addresses T4, GST-Dm-Relish (UniProt Q94527).
T4 sequence: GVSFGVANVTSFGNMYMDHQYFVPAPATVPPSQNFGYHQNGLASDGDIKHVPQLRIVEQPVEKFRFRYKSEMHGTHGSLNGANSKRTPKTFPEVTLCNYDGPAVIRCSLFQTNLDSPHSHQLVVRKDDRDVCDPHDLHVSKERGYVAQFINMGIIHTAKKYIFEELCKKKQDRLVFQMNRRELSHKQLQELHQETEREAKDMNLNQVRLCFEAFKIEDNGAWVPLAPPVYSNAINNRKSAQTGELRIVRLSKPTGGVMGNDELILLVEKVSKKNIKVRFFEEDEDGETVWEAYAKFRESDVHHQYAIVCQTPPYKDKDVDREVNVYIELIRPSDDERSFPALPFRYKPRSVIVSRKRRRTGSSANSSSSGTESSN

For the next experiment, the target named is T5, GST-Aq-NF-kB (UniProt A9Y5G7).
T5 sequence: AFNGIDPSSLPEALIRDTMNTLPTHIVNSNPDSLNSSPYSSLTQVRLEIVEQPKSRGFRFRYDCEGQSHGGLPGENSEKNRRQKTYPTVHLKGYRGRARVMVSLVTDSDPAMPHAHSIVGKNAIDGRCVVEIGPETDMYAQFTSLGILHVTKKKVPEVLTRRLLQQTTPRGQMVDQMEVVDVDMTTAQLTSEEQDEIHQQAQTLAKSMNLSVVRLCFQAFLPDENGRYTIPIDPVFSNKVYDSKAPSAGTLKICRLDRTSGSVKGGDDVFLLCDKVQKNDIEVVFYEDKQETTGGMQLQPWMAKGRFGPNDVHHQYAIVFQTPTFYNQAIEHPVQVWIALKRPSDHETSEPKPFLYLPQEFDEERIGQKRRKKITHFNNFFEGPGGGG

Consider “CCGATTAACATCACGTTCGTTTCTGATGTTAATCGGGTCTTGATTCGCTTGACGCTGCTG”, for which the binding signal with GST-Ap-NF-kB RHD was -0.441 z-score; in experiment [1] it was -0.221 z-score; in the experiment with GST-Co-NF-kB, -0.236 z-score; with GST-Dm-Relish it was -0.264 z-score; in the experiment with GST-Aq-NF-kB it was -0.36 z-score.

Turning to “CCGATTAACATCAAGACCACTGTTGATGTTAATCGGGTCTTGATTCGCTTGACGCTGCTG”, the binding signal is -0.479 z-score with GST-Ap-NF-kB RHD; 0.297 z-score in experiment [1]; -0.36 z-score in the experiment with GST-Co-NF-kB; 0.197 z-score with GST-Dm-Relish; -0.357 z-score with GST-Aq-NF-kB.

In the case of “CCGATTAACATCAATTTCACAGGTGATGTTAATCGGGTCTTGATTCGCTTGACGCTGCTG”, the binding signal in the experiment with GST-Ap-NF-kB RHD was -0.037 z-score; in experiment [1], -0.242 z-score; with GST-Co-NF-kB, 0.834 z-score; with GST-Dm-Relish, 0.727 z-score; with GST-Aq-NF-kB, 0.305 z-score.

Consider “CCGATTAACATCAGCTGATAGGTTGATGTTAATCGGGTCTTGATTCGCTTGACGCTGCTG”, for which the binding signal with GST-Ap-NF-kB RHD is -0.363 z-score; in experiment [1] it was -0.933 z-score; with GST-Co-NF-kB, -1.24 z-score; with GST-Dm-Relish, -0.579 z-score; with GST-Aq-NF-kB it was -0.453 z-score.

For the sequence “CCGATTAACATCATGCAATACAATGATGTTAATCGGGTCTTGATTCGCTTGACGCTGCTG”, the binding signal in the experiment with GST-Ap-NF-kB RHD is -0.874 z-score; in experiment [1] it was -0.428 z-score; with GST-Co-NF-kB, -0.678 z-score; in the experiment with GST-Dm-Relish, -0.414 z-score; in the experiment with GST-Aq-NF-kB, -0.469 z-score.

As for “CCGATTAACATCAGTAAAACGATTGATGTTAATCGGGTCTTGATTCGCTTGACGCTGCTG”, the binding signal with GST-Ap-NF-kB RHD is -0.581 z-score; in experiment [1] it was -0.559 z-score; in the experiment with GST-Co-NF-kB, -0.265 z-score; with GST-Dm-Relish, -0.133 z-score; with GST-Aq-NF-kB it was -0.364 z-score.

Consider “CCGATTAACATCACGAAATTCCGTGATGTTAATCGGGTCTTGATTCGCTTGACGCTGCTG”, for which the binding signal is -0.606 z-score with GST-Ap-NF-kB RHD; 0.502 z-score in experiment [1]; -0.591 z-score with GST-Co-NF-kB; 0.797 z-score in the experiment with GST-Dm-Relish; 0.167 z-score with GST-Aq-NF-kB.

Turning to “CCGATTAACATCAGGGATCCCCCTGATGTTAATCGGGTCTTGATTCGCTTGACGCTGCTG”, the binding signal came out at 12 z-score with GST-Ap-NF-kB RHD; 10.2 z-score in experiment [1]; 5.15 z-score with GST-Co-NF-kB; 11.1 z-score with GST-Dm-Relish; 10.3 z-score with GST-Aq-NF-kB.

“CCGATTAACATCAGGCAAATCCATGATGTTAATCGGGTCTTGATTCGCTTGACGCTGCTG”: the binding signal in the experiment with GST-Ap-NF-kB RHD is -0.351 z-score; in experiment [1], 0.0473 z-score; with GST-Co-NF-kB, -0.189 z-score; in the experiment with GST-Dm-Relish it was -0.614 z-score; with GST-Aq-NF-kB, 0.171 z-score.

For the sequence “CCGATTAACATCACGTGGATTCCTGATGTTAATCGGGTCTTGATTCGCTTGACGCTGCTG”, the binding signal was -0.3 z-score in the experiment with GST-Ap-NF-kB RHD; -0.498 z-score in experiment [1]; 0.374 z-score in the experiment with GST-Co-NF-kB; 1.66 z-score with GST-Dm-Relish; 0.488 z-score in the experiment with GST-Aq-NF-kB.

As to “CCGATTAACATCAAGCCGGCAATTGATGTTAATCGGGTCTTGATTCGCTTGACGCTGCTG”, the binding signal with GST-Ap-NF-kB RHD was -0.203 z-score; in experiment [1], 0.257 z-score; with GST-Co-NF-kB it was -1.07 z-score; with GST-Dm-Relish it was -0.985 z-score; with GST-Aq-NF-kB it was -0.746 z-score.

For “CCGATTAACATCAAATCGCAGCCTGATGTTAATCGGGTCTTGATTCGCTTGACGCTGCTG”, the binding signal with GST-Ap-NF-kB RHD is -0.104 z-score; in experiment [1], -1.12 z-score; with GST-Co-NF-kB, -0.621 z-score; with GST-Dm-Relish, -0.837 z-score; with GST-Aq-NF-kB, -0.431 z-score.

For “CCGATTAACATCAGGTATTTCCATGATGTTAATCGGGTCTTGATTCGCTTGACGCTGCTG”, the binding signal with GST-Ap-NF-kB RHD stood at 0.66 z-score; in experiment [1], 0.664 z-score; in the experiment with GST-Co-NF-kB, 0.258 z-score; in the experiment with GST-Dm-Relish it was 2.79 z-score; in the experiment with GST-Aq-NF-kB it was 3.5 z-score.

As for “CCGATTAACATCAAATTTCCTAATGATGTTAATCGGGTCTTGATTCGCTTGACGCTGCTG”, the binding signal was -0.463 z-score with GST-Ap-NF-kB RHD; 0.071 z-score in experiment [1]; 0.251 z-score with GST-Co-NF-kB; 0.00363 z-score in the experiment with GST-Dm-Relish; 0.208 z-score with GST-Aq-NF-kB.
